# Results: PubChem BioAssay AID624417 (National Center for Advancing Translational Sciences (NCATS), 2012)
# Where “and” joins values, the source holds several entries; their conditions need not be identical. Equal values may be shown once. Hit rate of the full screen: of about 410,000 compounds, about 6,400 (1.6%) were called active. The inconclusive results got no clear call from the source; some entries with a clear call stand among them for comparison. The call rests on the fitted dose curve; in most records, active means well fitted inhibition curve with a large enough effect; inconclusive means small, poorly fitted or top-dose-only effect; inactive means no such curve, though single readings can be large or run the other way. Potencies of inconclusive entries are doubtful fits and often do not repeat.
# Molecular target: Glucagon-like peptide 1 receptor (Homo sapiens) (UniProt P43220)
# UniProt P43220, sequence (P43220 whole entry, looked up): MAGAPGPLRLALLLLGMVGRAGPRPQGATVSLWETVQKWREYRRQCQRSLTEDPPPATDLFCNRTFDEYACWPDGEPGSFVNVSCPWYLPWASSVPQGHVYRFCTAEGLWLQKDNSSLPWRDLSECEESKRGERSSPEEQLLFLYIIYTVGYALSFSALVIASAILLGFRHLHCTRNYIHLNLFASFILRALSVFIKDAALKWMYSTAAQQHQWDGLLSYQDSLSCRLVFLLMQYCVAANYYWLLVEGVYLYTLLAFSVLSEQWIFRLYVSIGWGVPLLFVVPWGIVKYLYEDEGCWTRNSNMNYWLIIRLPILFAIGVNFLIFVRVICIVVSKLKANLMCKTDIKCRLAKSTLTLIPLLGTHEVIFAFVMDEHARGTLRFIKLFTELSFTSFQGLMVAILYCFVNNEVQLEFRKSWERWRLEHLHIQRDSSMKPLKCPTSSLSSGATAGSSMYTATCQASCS
# Test: qHTS of GLP-1 Receptor Inverse Agonists (Inhibition Mode); further: nearly all actives have a fitted effect of over 55% in size
# Conditions: HEK293 GLP-1R CRE-luciferase, luminescence, 24 h, GLP-1R form is constitutively active; series mostly up to 38.3 µM
# Procedure, shortened: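 Constitutively active GLP-1R drives a cAMP-responsive luciferase in stably transfected HEK293 cells; test compounds are added after overnight (12 h) attachment and left 24 hr, and signal loss in luminescence marks inhibition.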
# Potency means the concentration at half of the fitted maximal effect; tags describe the fitted curve by direction and shape.
row,SMILES,Potency
1,Cc1c2c(nc3ccccc13)CCC(C(C)(C)C)C2 (configuration not stated),"inconclusive: 1.12 µM [inhibitor, full curve, poor fit]"
2,O=C(CNc1ccc(Cl)c(C(F)(F)F)c1)N1CCN(S(=O)(=O)c2ccccc2)CC1,"inconclusive: 20 µM [inhibitor, single point]"
3,CCCCn1nnnc1C(c1ccccc1)N1CCN(c2ncc(C(F)(F)F)cc2Cl)CC1 (configuration not stated),"inconclusive: 11.2 µM [inhibitor, partial curve, poor fit]"
4,CCCc1ccc(OCC(O)CN2CCN(c3ccccc3)CC2)cc1 (configuration not stated),"inconclusive: 11.2 µM [inhibitor, partial curve, poor fit] and inconclusive: 3.55 µM [inhibitor, partial curve, poor fit]"
5,CC1(C)CNC(=O)c2sc(NC(=O)CN3CCOCC3)nc2C1,"inconclusive: 0.501 µM [inhibitor, full curve, poor fit]"
6,Cc1ccc(-n2c(O)c(/C=N/Nc3ccc(S(=O)(=O)N4CCOCC4)cc3[N+](=O)[O-])c3ccccc3c2=O)c(C)c1,"inconclusive: 3.16 µM [inhibitor, single point]"
7,Oc1oc(-c2ccccc2)nc1/C=N/c1nccs1,inactive
8,COc1ccc(CCN2C(=O)N(c3ccc(F)cc3)C(=O)C2CC(=O)Nc2ccc(F)c(F)c2)cc1 (configuration not stated),"inconclusive: 15.8 µM [inhibitor, partial curve, poor fit]"
9,O=C(c1ccco1)N1CCN(C(=O)N2c3ccccc3Sc3ccccc32)CC1,"inconclusive: 11.2 µM [inhibitor, partial curve, poor fit]"
10,Nc1ccc(-c2ccc(N)cc2C(F)(F)F)c(C(F)(F)F)c1,"inconclusive: 12.6 µM [inhibitor, partial curve, poor fit]"
11,COc1ccc(C(=O)C2CCN(C(=S)NCCc3ccc(OC)c(OC)c3)CC2)cc1,"inconclusive: 7.94 µM [inhibitor, partial curve, poor fit]"
12,CC1Cc2ccccc2N1Cc1cccc([N+](=O)[O-])c1 (configuration not stated),"inconclusive: 28.2 µM [inhibitor, single point]"
13,CC1=C(C(=O)Nc2cccnc2)C(c2ccccc2)n2nc(SCc3ccccc3F)nc2N1 (configuration not stated),inactive
14,CN(C)c1ccc(/C=N/OC(=O)Nc2ccccc2)cc1,"inconclusive: 28.2 µM [inhibitor, single point]"
15,Cc1cc(C)cc(N(CC(=O)Nc2cccc(C)n2)S(=O)(=O)c2c(C)noc2C)c1,active: 8.91 µM
16,O=C(NC1CCCC1)c1ccc2c(c1)N(Cc1ccccc1F)C(=O)c1ccccc1S2,"inconclusive: 10 µM [inhibitor, partial curve, poor fit]"
17,COc1cc2c(cc1OC)CN(C(=S)Nc1ccccc1Cl)CC2,"inconclusive: 25.1 µM [inhibitor, single point]"
18,CC(C)N1CC(C(=O)Nc2ccc(Cl)c(Cl)c2)CC1=O (configuration not stated),"inconclusive: 7.94 µM [inhibitor, partial curve]"
19,Fc1ccc(NC(=S)N2CCCN(c3ccc(C(F)(F)F)cn3)CC2)c(F)c1,"inconclusive: 20 µM [inhibitor, partial curve, poor fit]"
20,O=C(COC(=O)c1ccc(O)cc1)Nc1cc(S(=O)(=O)N2CCOCC2)ccc1Cl,inactive
21,Cn1c(-c2sccc2OCc2cccc(C(F)(F)F)c2)n[nH]c1=S,"inconclusive: 28.2 µM [inhibitor, single point]"

row,SMILES,Potency
1,CCc1nnc(NC(=O)CSc2nccn2-c2cccc(C)c2)s1,"inconclusive: 8.91 µM [inhibitor, partial curve, poor fit]"
2,O=C(O)c1ccc(NC(=O)c2cccc(S(=O)(=O)Nc3ccc(C(=O)O)cc3)c2)cc1,inactive
3,CCCc1c(C(=O)Nc2ccc(C(F)(F)F)cc2)cnn1-c1ccccc1,"inconclusive: 2.82 µM [inhibitor, full curve, poor fit]"
4,Nc1c(C(=O)NCCC2=CCCCC2)sc2ccc(S(=O)(=O)N3CCCCC3)cc12,"inconclusive: 10 µM [inhibitor, partial curve, poor fit]"
5,Cc1ccc(NC(NC(=O)c2ccccc2[N+](=O)[O-])C(Cl)(Cl)Cl)cc1 (configuration not stated),"inconclusive: 31.6 µM [inhibitor, partial curve, poor fit]"
6,CCCNC(=O)c1ccc(S(=O)(=O)c2ccc(OC)cc2)c([N+](=O)[O-])c1,"inconclusive: 5.01 µM [inhibitor, partial curve, poor fit]"
7,CCCC(=O)O[C@@H]1C[C@@H](C)N(C(=O)c2ccccc2)c2ccc(C)cc21,active: 10 µM
8,CC(=O)N/C(=C\c1cccc([N+](=O)[O-])c1)C(=O)NC1CCCCC1,inactive
9,O=C(Nc1ccc(F)cc1F)c1ccc2c(c1)OCCO2,"inconclusive: 22.4 µM [inhibitor, single point]"
10,Cc1ccc(CN2CCN(Cc3nc4c(s3)CCCC4)CC2CCO)cc1 (configuration not stated),"inconclusive: 10 µM [inhibitor, partial curve, poor fit]"
11,Cc1ccc(S(=O)(=O)c2ccc(NC(=O)c3c(F)cccc3F)cc2)cc1,"inconclusive: 28.2 µM [inhibitor, single point]"
12,CCCCNCC(=O)Nc1ccc(NC(=O)CNCCCC)cc1,"inconclusive: 31.6 µM [inhibitor, single point]"
13,OCC1OC(n2ccc3c(SCc4ccccc4)ncnc32)C(O)C1O (configuration not stated),inactive
14,O=C(Nc1ccc2nc(-c3ccco3)c(-c3ccco3)nc2c1)N1CCN(c2ccccn2)CC1,"inconclusive: 28.2 µM [inhibitor, single point]"
15,O=S(=O)(NC1CCCC1)c1ccc(S(=O)(=O)N2CCc3ccccc32)cc1,"inconclusive: 28.2 µM [inhibitor, single point]"
16,S=C(Nc1ccc(Br)cc1)N1CCN(C2CCCCC2)CC1,"inconclusive: 14.1 µM [inhibitor, single point]"
17,COc1ccc(C2(c3ccc(OC)cc3)NC(=O)N(Cn3nnc4ccccc4c3=O)C2=O)cc1,"inconclusive: 0.355 µM [inhibitor, full curve, poor fit]"
18,CCOC(=O)c1ccccc1NC(=O)CN1C(=O)NC(C)(CCc2ccccc2)C1=O (configuration not stated),"inconclusive: 12.6 µM [inhibitor, partial curve, poor fit]"
19,COc1ccccc1N=C1SC(C(=O)Nc2cccc(Cl)c2Cl)C(N)=C1C(N)=O (configuration not stated),"inconclusive: 8.91 µM [inhibitor, partial curve, poor fit]"
20,CC(OC(=O)c1cccs1)C(=O)NC1CCCCC1C (configuration not stated),inactive
21,CCCOc1cc(C)c(Cl)cc1S(=O)(=O)N(CC)CC,active: 2.51 µM

row,SMILES,Potency
1,Cc1cccc(-n2cnc3cc([N+](=O)[O-])ccc32)c1,inactive
2,CCC(C)NC(=O)c1ccc(CSCc2ccccc2Cl)o1 (configuration not stated),"inconclusive: 11.2 µM [inhibitor, partial curve, poor fit]"
3,O=C(Nc1ccc(Cl)c(Cl)c1)OCc1cncs1,"inconclusive: 28.2 µM [inhibitor, single point]"
4,N#Cc1cn(CC(=O)N2CCCc3ccccc32)c2ccccc12,"inconclusive: 8.91 µM [inhibitor, partial curve, poor fit]"
5,CS(=O)(=O)c1[nH]nc(-c2ccccc2Cl)c1C#N,"inconclusive: 2.24 µM [inhibitor, full curve, poor fit]"
6,OCCNCc1cccc(OCc2ccc(Cl)cc2)c1,"inconclusive: 0.794 µM [inhibitor, full curve, poor fit]"
7,O=C(NCC(c1cccs1)S(=O)(=O)c1cccs1)c1ccc(C(F)(F)F)cc1 (configuration not stated),"inconclusive: 12.6 µM [inhibitor, single point]"
8,Cc1ccc(CSCCNC(=O)c2ccccc2)cc1,"inconclusive: 28.2 µM [inhibitor, single point]"
9,Cc1ccnc(NC(=O)CN2C(=O)NC(C)(c3ccc4ccccc4c3)C2=O)c1 (configuration not stated),"inconclusive: 28.2 µM [inhibitor, single point]"
10,O=C(NNC(=O)C1CCN(S(=O)(=O)c2ccc(Cl)cc2)CC1)c1ccccc1O,"inconclusive: 28.2 µM [inhibitor, single point]"
11,CC1CN(c2nc(Nc3ccccc3F)nc(N)c2[N+](=O)[O-])CC(C)O1 (configuration not stated),inactive
12,CCC[C@@H]1C=C(C(=O)OCC)[C@H](c2ccccc2)N1S(=O)(=O)c1ccc(C)cc1,"inconclusive: 12.6 µM [inhibitor, partial curve, poor fit]"
13,Cc1ccc(-n2ncc3c(N(CCO)Cc4ccccc4)ncnc32)cc1,"inconclusive: 10 µM [inhibitor, single point]"
14,CCOCCCNC(=O)CN1C(=O)c2c(c3ccccc3n2C)C1c1ccc(OC)cc1 (configuration not stated),inactive
15,C/C=C/c1cc(OC)c2c(c1)[C@H](C)[C@@H](c1ccc(O)c(OC)c1)O2,"inconclusive: 7.94 µM [inhibitor, partial curve, poor fit]"
16,COc1cccc(N(Cc2nnc3n2CCCCC3)C(=O)Nc2cccc(Cl)c2)c1,inactive
17,Cc1cccc(NS(=O)(=O)c2cccc(C(=O)N3CCCCCCC3)c2)c1,"inconclusive: 28.2 µM [inhibitor, single point]"
18,Cc1ccc(S(=O)(=O)N2CCC(=O)N(C(COCc3cccc(Cl)c3)C(C)C)CC2)cc1 (configuration not stated),"inconclusive: 28.2 µM [inhibitor, single point]"
19,CCN(c1ccccc1)S(=O)(=O)c1ccc(NCC2COc3ccccc3O2)nc1 (configuration not stated),active: 5.01 µM
20,CCOc1ccc(CSCCNC(=S)Nc2ccc(OC)cc2)cc1,"inconclusive: 8.91 µM [inhibitor, partial curve, poor fit]"
